# From PubChem BioAssay AID686979 (National Center for Advancing Translational Sciences (NCATS), 2013)
# In all, about 420,000 compounds went through this assay and about 50,000 (12%) were called active. The shares of active, inactive and inconclusive entries below differ from those in the screen. Calls come from the whole dose curve; as a rule, active = well fitted inhibition curve with a large enough effect; inconclusive = small, poorly fitted or top-dose-only effect; inactive = flat fitted curve, though single readings scatter. Potencies of inconclusive entries are left out as doubtful fits.
# Assay: qHTS for Inhibitors of human tyrosyl-DNA phosphodiesterase 1 (TDP1): qHTS in cells in presence of CPT; note: nearly all actives have a fitted effect of over 55% in size
# Conditions: chicken DT40 Tdp1-/-;hTDP1 cells + 20 nM CPT, ATP luminescence, 48 h; activity change, negative = growth inhibition: at 46.2 µM (top of the series)
# How it was run: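 Cell growth measured by CellTiter-Glo luminescence after a minimum 48 h, 37 C compound exposure with 20 nM CPT in Tdp1-knockout DT40 cells stably expressing hTDP1, seeded 400/well; qHTS titration format.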
# % is set by controls: 0 for no effect and ±100 for the full control effect; potency is the fitted concentration of half-maximal effect; tags give direction and shape of the fitted curve.
Structure (SMILES),Potency,"activity change, negative = growth inhibition"
O=S(=O)(Cc1ccc(Cl)cc1)c1ccccc1-c1nnc(-c2ccccc2)o1,"inconclusive [inhibitor, single point]",–
Cc1cc(Cl)c(OCCCn2ccnc2)c(Br)c1,"inconclusive [inhibitor, single point]",–
CCOC(=O)C(C(=O)OCC)C1OC(=O)c2cc3c(cc21)C(=O)OC3C(C(=O)OCC)C(=O)OCC (stereo unspecified),"inconclusive [inhibitor, single point]",–
COc1cc(-c2nnc(NC(=O)CCS(=O)(=O)c3ccc(F)cc3)o2)cc(OC)c1OC,"inconclusive [inhibitor, single point]",–
COc1ccc(-n2c(=O)c(CCC(=O)NCCc3ccccc3F)nc3ccccc32)cc1,"inconclusive [inhibitor, single point]",–
CCOc1ccc(CCNC(=O)Cn2c(-c3cccs3)cc3ccccc32)cc1,"inconclusive [inhibitor, single point]",–
COc1ccc(NC(=O)c2ccc(NC(=O)CN3CCN(c4ccccc4O)CC3)cc2)cc1,active: 18.4 µM,–
Cn1cc(S(=O)(=O)N2CCc3ccccc32)cc1C(=O)Nc1ccc(Cl)cc1,active: 25.9 µM,–
COc1ccccc1Cc1nc(-c2cccnc2)no1,"inconclusive [inhibitor, single point]",–
CC(=O)C1=C(C)NC(SCC(N)=O)=C(C#N)C1C (stereo unspecified),–,inactive: -29.1%
CCOc1ccc(NC(=O)c2cc(SC)ccc2Cl)cc1,active: 18.4 µM,–
Cc1nc(SCC(=O)O)c(C#N)c2c1CCCC2,"inconclusive [inhibitor, full curve, poor fit]",–
CCCNC(=O)c1ccc(SC)cc1OC,–,inactive: -11.5%
Cc1cccc(NC(=S)N(CCN2CCOCC2)Cc2cc3cc4c(cc3[nH]c2=O)OCCO4)c1,"inconclusive [inhibitor, single point]",–
CCOc1ccc(NC(=O)CN(Cc2ccccc2)S(=O)(=O)c2ccc3nc(C)sc3c2)cc1,"inconclusive [inhibitor, single point]",–
CCN(C(=O)COC(=O)c1cccs1)c1c(N)n(Cc2ccccc2)c(=O)[nH]c1=O,–,inactive: 22.8%
CCOC(=O)C1(C)CCN1C(=O)c1ccc2ccccc2c1 (stereo unspecified),"inconclusive [inhibitor, single point]",–
CC1CN(C(=O)CCC(=O)N2CCN(c3cccc(C(F)(F)F)c3)CC2)c2ccccc2O1 (stereo unspecified),active: 18.4 µM,–
CCCCn1c(N)c(N(CC(C)C)C(=O)CSc2nnc(C)n2-c2ccc(OC)cc2)c(=O)[nH]c1=O,–,inactive: 6.61%
CSc1ccc(NC(=O)C2(C)CCN2C(=O)c2sccc2C)cc1 (stereo unspecified),"inconclusive [inhibitor, single point]",–
CCCCSc1n[nH]c(=S)c2nc[nH]c12,"inconclusive [inhibitor, single point]",–
COc1c(/C=N/NC(N)=S)c(C)nn1-c1ccccc1,"inconclusive [inhibitor, partial curve]",–

Structure (SMILES),Potency,"activity change, negative = growth inhibition"
CC1CCN(S(=O)(=O)c2ccc(NC(=O)CN3CCCC(C)C3)cc2)CC1 (stereo unspecified),"inconclusive [inhibitor, single point]",–
O=[N+]([O-])c1ccc2nc(NCCCO)nc(-c3ccccc3)c2c1,active: 9.2 µM,–
CCOc1ccc(N2CC(NC(=O)c3ccc(Cl)cc3)CC2=O)cc1 (stereo unspecified),"inconclusive [inhibitor, partial curve]",–
O=C(Cn1cnc2ccccc2c1=O)Nc1cccc(S(=O)(=O)N2CCCCC2)c1,"inconclusive [inhibitor, single point]",–
CCOC1=C2[C@@H](CN(S(=O)(=O)c3ccc(C)cc3)[C@H]2c2ccccc2)[C@H]2C(=O)N(Cc3ccccc3)C(=O)[C@H]2C1,"inconclusive [inhibitor, single point]",–
CCOC(=O)c1c(NC(=O)COC(=O)Cc2n[nH]c(=O)c3ccccc23)sc(C(=O)NC)c1C,"inconclusive [inhibitor, partial curve, poor fit]",–
Cc1c(C(=O)OC(C)C)sc(NC(=O)C2CCCO2)c1C(=O)OC(C)C (stereo unspecified),"inconclusive [inhibitor, single point]",–
COc1cc(S(=O)(=O)N(Cc2cccs2)CC2CCCO2)ccc1-n1cnnn1 (stereo unspecified),"inconclusive [inhibitor, single point]",–
Cc1cccc(NC(=O)c2oc3ccccc3c2NC(=O)c2cc(=O)c3ccccc3o2)c1,–,inactive: -8.07%
Cc1ccc(S(=O)(=O)Nc2nc3ccccc3nc2Nc2cccc(S(=O)(=O)N3CCCC3)c2)cc1,"inconclusive [inhibitor, single point]",–
CCOC(=O)N1CCN(C(=O)c2[nH]c(C(F)(F)F)nc2-c2ccccc2)CC1,active: 16.4 µM,–
CCOC(=O)N1CCc2c(sc3c2c(=O)n(Cc2ccccc2)c(=O)n3CC(=O)Nc2ccc(F)cc2)C1,active: 5.8 µM,–
O=C(CCCN1C(=O)/C(=C/c2cccc(Br)c2)SC1=S)Nc1ccccn1,"inconclusive [inhibitor, single point]",–
Cc1csc(NC(=O)Nc2ccc(Cl)cc2)n1,–,inactive: -25.6%
CCc1cc2c(=O)nc3n(c2s1)Cc1ccccc1/C3=C(/O)c1cccc([N+](=O)[O-])c1,"inconclusive [inhibitor, partial curve]",–
Cc1nc(NC(C)c2ccccc2)c2c3c(sc2n1)CCC3 (stereo unspecified),active: 16.4 µM,–
Cc1ccc(-n2ccc(=O)c(C(=O)Nc3ccc(S(=O)(=O)N4CCOCC4)cc3)n2)cc1,–,inactive: -4.56%
O=C(CCNc1cc(Cl)cc(Cl)c1)c1cccs1,"inconclusive [inhibitor, partial curve]",–
COc1ccc(-n2c(C)c(C)c3c(N)ncnc32)cc1,"inconclusive [inhibitor, partial curve]",–
COC(=O)c1ccc(-n2nnnc2SCC(=O)Nc2cc(OC)ccc2OC)cc1,"inconclusive [inhibitor, single point]",–
CSCC[C@H](NC(=O)[C@H](Cc1ccccc1)n1c(=O)[nH]c2ccccc2c1=O)C(=O)N1CCC(C(=O)O)CC1,–,inactive: 2%
CCc1ccccc1Nc1nn2c(=O)c3ccc(C(=O)NCc4ccccn4)cc3nc2s1,"inconclusive [inhibitor, single point]",–

Structure (SMILES),Potency,"activity change, negative = growth inhibition"
CSc1cccc(NC(=S)NC(=O)CCc2ccccc2)c1,"inconclusive [inhibitor, single point]",–
Nc1ccc2nc(-c3cccc(-c4nc5ccc(N)cc5[nH]4)c3)[nH]c2c1,–,inactive: 5.03%
Cc1cccc(N(CC(=O)NC2CCCC2)C(=O)c2nsc(Cl)c2Cl)c1C,"inconclusive [inhibitor, single point]",–
CCc1ccccc1NC(=O)CSc1nncn2c1cc1oc(C)cc12,"inconclusive [inhibitor, single point]",–
Cc1ccccc1-c1cccc([C@@H]2C[C@H]3C(CN2)CON3C)c1 (stereo partly specified),"inconclusive [inhibitor, single point]",–
CCOc1ccc(NC(=O)CSc2cn(CCNC(=O)c3ccccc3F)c3ccccc23)cc1,"inconclusive [inhibitor, single point]",–
Cc1ccc(S(=O)(=O)N2CCCCC2)cc1C(=O)N(CCc1ccccc1)Cc1ccccc1,active: 8.2 µM,–
CC[C@H](C)[C@@H](CNC)NC[C@@H](Cc1ccc(O)cc1)NCC(C)(C)C,"inconclusive [inhibitor, partial curve]",–
COC(=O)c1ccc(NC(=O)c2cccc(OC)c2)cc1,"inconclusive [inhibitor, single point]",–
Cc1ccc(C(=O)Nc2ccncc2)cc1S(=O)(=O)N1CCOCC1,"inconclusive [inhibitor, single point]",–
COc1ccc(CN2C(=O)C(NC(=O)c3cccc(C)c3)(C(F)(F)F)N=C2c2ccccc2)cc1 (stereo unspecified),"inconclusive [inhibitor, single point]",–
CC1=C(C(=O)N2CCCC(CCC(=O)NCc3ccc(F)c(F)c3)C2)OCCO1 (stereo unspecified),–,inconclusive: -30.4% [inhibitor]
Cc1cccc(C(=O)NCc2ccc(S(N)(=O)=O)cc2)c1[N+](=O)[O-],–,inactive: -1.56%
CN1OC[C@@H]2CN(C(=O)CCc3ccccc3)[C@H](c3ccc(N4CCCCC4)cc3)C[C@@H]21,"inconclusive [inhibitor, single point]",–
COc1cc(-c2nc3ccc(C)cn3c2Nc2ccc3c(c2)OCCO3)ccc1O,"inconclusive [inhibitor, single point]",–
CCC1Sc2ccc(S(=O)(=O)Nc3ccc(OC)c(OC)c3)cc2NC1=O (stereo unspecified),active: 20.6 µM,–
O=C(COC(=O)CCc1nc2ccccc2s1)NC(=O)NCc1ccco1,–,inactive: 14.7%
COc1ccccc1C(=O)CN1C(=O)NC2(CCc3ccccc32)C1=O (stereo unspecified),"inconclusive [inhibitor, single point]",–
C/C(N)=C(/C#N)C(=O)CSc1ncnc2ccccc12,"inconclusive [inhibitor, single point]",–
O=C(NCCS(=O)(=O)N1CCN(c2ccc(F)cc2)CC1)C(c1ccccc1)c1ccccc1,"inconclusive [inhibitor, single point]",–
CCNC(=O)C1(C)CCN(C(=O)c2ccc(OC(F)F)cc2)C1 (stereo unspecified),–,inactive: -19.9%
CC1Cc2ccccc2N1Cc1nc2cc(Cl)ccc2c(=O)[nH]1 (stereo unspecified),"inconclusive [inhibitor, single point]",–
